Measurements reported in article PMC9911399, “Two distinct binding modes provide the RNA-binding protein RbFox with extraordinary sequence specificity”.
Substitutions are numbered along the chain they refer to; changes in the protein carry UniProt numbers. The list shows a part of the results.

B1: GUUUGAG (DNA:RNA)
RNA: GGGAGACCGGAAUUCAGAUUGUCCGUUUGAGUUAAAUCCCGUCGUAGCCACCA
DNA 1: CAATCTGAATTCCGGTCTCCC
DNA 2: TGGTGGCTACGACGGGATT
B2: CGUUAGC (DNA:RNA)
RNA: B1 RNA with G25C, U26G, G29A, A30G, G31C
DNA 1: CAATCTGAATTCCGGTCTCCC
DNA 2: TGGTGGCTACGACGGGATT
B3: GACCAAA (DNA:RNA)
RNA: B1 RNA with U26A, U27C, U28C, G29A, G31A
DNA 1: CAATCTGAATTCCGGTCTCCC
DNA 2: TGGTGGCTACGACGGGATT
B4: GCUAUUA (DNA:RNA)
RNA: B1 RNA with U26C, U28A, G29U, A30U, G31A
DNA 1: CAATCTGAATTCCGGTCTCCC
DNA 2: TGGTGGCTACGACGGGATT
B5: CCGGUCA (DNA:RNA)
RNA: GGGAGACCGGAAUUCAGAUUGUCCCCGGUCAUUAAAUCCCGUCGUAGCCACCA
DNA 1: CAATCTGAATTCCGGTCTCCC
DNA 2: TGGTGGCTACGACGGGATT
B6: CCUGCAG (DNA:RNA)
RNA: B5 RNA with G27U, U29C, C30A, A31G
DNA 1: CAATCTGAATTCCGGTCTCCC
DNA 2: TGGTGGCTACGACGGGATT
B7: UCGUUCG (DNA:RNA)
RNA: B5 RNA with C25U, G28U, A31G
DNA 1: CAATCTGAATTCCGGTCTCCC
DNA 2: TGGTGGCTACGACGGGATT
B8: CAAAGGG (DNA:RNA)
RNA: B1 RNA with G25C, U26A, U27A, U28A, A30G
DNA 1: CAATCTGAATTCCGGTCTCCC
DNA 2: TGGTGGCTACGACGGGATT
B9: GACGGCG (DNA:RNA)
RNA: B1 RNA with U26A, U27C, U28G, A30C
DNA 1: CAATCTGAATTCCGGTCTCCC
DNA 2: TGGTGGCTACGACGGGATT
B10: CUAAUGG (DNA:RNA)
RNA: B5 RNA with C26U, G27A, G28A, C30G, A31G
DNA 1: CAATCTGAATTCCGGTCTCCC
DNA 2: TGGTGGCTACGACGGGATT
B11: UCCACGG (DNA:RNA)
RNA: B5 RNA with C25U, G27C, G28A, U29C, C30G, A31G
DNA 1: CAATCTGAATTCCGGTCTCCC
DNA 2: TGGTGGCTACGACGGGATT
B12: UGCAUGG (DNA:RNA)
RNA: B5 RNA with C25U, C26G, G27C, G28A, C30G, A31G
DNA 1: CAATCTGAATTCCGGTCTCCC
DNA 2: TGGTGGCTACGACGGGATT
B13: AGUACGA (DNA:RNA)
RNA: B5 RNA with C25A, C26G, G27U, G28A, U29C, C30G
DNA 1: CAATCTGAATTCCGGTCTCCC
DNA 2: TGGTGGCTACGACGGGATT
B14: UAUCGUG (DNA:RNA)
RNA: B1 RNA with G25U, U26A, U28C, A30U
DNA 1: CAATCTGAATTCCGGTCTCCC
DNA 2: TGGTGGCTACGACGGGATT
B15: UUAUAGG (DNA:RNA)
RNA: B1 RNA with G25U, U27A, G29A, A30G
DNA 1: CAATCTGAATTCCGGTCTCCC
DNA 2: TGGTGGCTACGACGGGATT
B16: CACAGGA (DNA:RNA)
RNA: B5 RNA with C26A, G27C, G28A, U29G, C30G
DNA 1: CAATCTGAATTCCGGTCTCCC
DNA 2: TGGTGGCTACGACGGGATT
B17: CUGACGU (DNA:RNA)
RNA: B5 RNA with C26U, G28A, U29C, C30G, A31U
DNA 1: CAATCTGAATTCCGGTCTCCC
DNA 2: TGGTGGCTACGACGGGATT
B18: UCAUUAG (DNA:RNA)
RNA: B1 RNA with G25U, U26C, U27A, G29U
DNA 1: CAATCTGAATTCCGGTCTCCC
DNA 2: TGGTGGCTACGACGGGATT
B19: AGUAGAG (DNA:RNA)
RNA: B1 RNA with G25A, U26G, U28A
DNA 1: CAATCTGAATTCCGGTCTCCC
DNA 2: TGGTGGCTACGACGGGATT
B20: UUACUCC (DNA:RNA)
RNA: B5 RNA with C25U, C26U, G27A, G28C, A31C
DNA 1: CAATCTGAATTCCGGTCTCCC
DNA 2: TGGTGGCTACGACGGGATT
B21: UGCAGGU (DNA:RNA)
RNA: B1 RNA with G25U, U26G, U27C, U28A, A30G, G31U
DNA 1: CAATCTGAATTCCGGTCTCCC
DNA 2: TGGTGGCTACGACGGGATT
B22: UUUGUUG (DNA:RNA)
RNA: B1 RNA with G25U, U28G, G29U, A30U
DNA 1: CAATCTGAATTCCGGTCTCCC
DNA 2: TGGTGGCTACGACGGGATT
B23: GGAUGGG (DNA:RNA)
RNA: B1 RNA with U26G, U27A, A30G
DNA 1: CAATCTGAATTCCGGTCTCCC
DNA 2: TGGTGGCTACGACGGGATT
B24: GAUUAAU (DNA:RNA)
RNA: B1 RNA with U26A, G29A, G31U
DNA 1: CAATCTGAATTCCGGTCTCCC
DNA 2: TGGTGGCTACGACGGGATT
B25: AUCGUGG (DNA:RNA)
RNA: B5 RNA with C25A, C26U, G27C, C30G, A31G
DNA 1: CAATCTGAATTCCGGTCTCCC
DNA 2: TGGTGGCTACGACGGGATT
B26: GAAAAUG (DNA:RNA)
RNA: B1 RNA with U26A, U27A, U28A, G29A, A30U
DNA 1: CAATCTGAATTCCGGTCTCCC
DNA 2: TGGTGGCTACGACGGGATT
B27: CGCGGAU (DNA:RNA)
RNA: B5 RNA with C26G, G27C, U29G, C30A, A31U
DNA 1: CAATCTGAATTCCGGTCTCCC
DNA 2: TGGTGGCTACGACGGGATT
B28: GGGCAUG (DNA:RNA)
RNA: B1 RNA with U26G, U27G, U28C, G29A, A30U
DNA 1: CAATCTGAATTCCGGTCTCCC
DNA 2: TGGTGGCTACGACGGGATT
B29: GGCUGUA (DNA:RNA)
RNA: B1 RNA with U26G, U27C, A30U, G31A
DNA 1: CAATCTGAATTCCGGTCTCCC
DNA 2: TGGTGGCTACGACGGGATT
B30: GCCCGGA (DNA:RNA)
RNA: B5 RNA with C25G, G27C, G28C, U29G, C30G
DNA 1: CAATCTGAATTCCGGTCTCCC
DNA 2: TGGTGGCTACGACGGGATT
B31: UGAGGUC (DNA:RNA)
RNA: B5 RNA with C25U, C26G, G27A, U29G, C30U, A31C
DNA 1: CAATCTGAATTCCGGTCTCCC
DNA 2: TGGTGGCTACGACGGGATT

The binders below were run against T1, RBFOX1 RRM RbFoxmut (Fox-RRM*) (Homo sapiens, UniProt Q9NWB1 109-208, R118D;E147R;N151S;E152T) (assay: EMSA; HiTS-Eq, 1 nM pool, 10 min; buffer printed only for the single-RNA assays: 10 mM Tris pH 7.5, 150 mM NaCl, 3.4 mM EDTA, 0.001% NP-40, 30 C). Settings: tags: His6 N-terminal (pET28a); label: 5' 32P.
T1 sequence: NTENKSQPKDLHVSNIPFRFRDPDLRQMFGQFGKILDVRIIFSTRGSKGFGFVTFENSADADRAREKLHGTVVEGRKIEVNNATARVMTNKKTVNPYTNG
Method in brief: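 Purified RbFox RRM, wild type or mutant, was incubated for 10 min in 50 µL with 1 nM of a 5′-radiolabelled RNA pool carrying 7 randomized nucleotides, whose flanks were annealed to DNA oligonucleotides, over a series of increasing protein concentrations. Unbound RNA was resolved on 8% native PAGE, cut out, reverse-transcribed, barcoded by PCR and sequenced on an Illumina HiSeq 2500. Relative association constants were derived from changes in read counts for each RNA species versus the control reaction and normalised to the cognate motif.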

Row | Binder | binding signal
1 | B1 | 0.233 KA relative to UGCAUGU
2 | B2 | 0.134 KA relative to UGCAUGU
3 | B3 | 0.086 KA relative to UGCAUGU
4 | B4 | 0.113 KA relative to UGCAUGU
5 | B5 | 0.0703 KA relative to UGCAUGU
6 | B6 | 0.105 KA relative to UGCAUGU
7 | B7 | 0.218 KA relative to UGCAUGU
8 | B8 | 0.0408 KA relative to UGCAUGU
9 | B9 | 0.106 KA relative to UGCAUGU
10 | B10 | 0.0875 KA relative to UGCAUGU
11 | B11 | 0.0669 KA relative to UGCAUGU
12 | B12 | 0.935 KA relative to UGCAUGU
13 | B13 | 0.049 KA relative to UGCAUGU
14 | B14 | 0.121 KA relative to UGCAUGU
15 | B15 | 0.0933 KA relative to UGCAUGU
16 | B16 | 0.0812 KA relative to UGCAUGU

Row | Binder | binding signal
17 | B17 | 0.0725 KA relative to UGCAUGU
18 | B18 | 0.155 KA relative to UGCAUGU
19 | B19 | 0.127 KA relative to UGCAUGU
20 | B20 | 0.0741 KA relative to UGCAUGU
21 | B21 | 0.126 KA relative to UGCAUGU
22 | B22 | 0.19 KA relative to UGCAUGU
23 | B23 | 0.085 KA relative to UGCAUGU
24 | B24 | 0.0998 KA relative to UGCAUGU
25 | B25 | 0.124 KA relative to UGCAUGU
26 | B26 | 0.1 KA relative to UGCAUGU
27 | B27 | 0.0894 KA relative to UGCAUGU
28 | B28 | 1.23 KA relative to UGCAUGU
29 | B29 | 0.184 KA relative to UGCAUGU
30 | B30 | 0.062 KA relative to UGCAUGU
31 | B31 | 0.109 KA relative to UGCAUGU
